From PubChem BioAssay AID2147 (National Center for Advancing Translational Sciences (NCATS), 2009)
The campaign covered roughly 230,000 compounds. About 3,600 (1.6%) were called active. The shares of active, inactive and inconclusive entries below differ from those in the screen. The call rests on the fitted dose curve; in most records, active means well fitted inhibition curve with a large enough effect (not every such curve was filed as active); inconclusive means small, poorly fitted or top-dose-only effect, or another doubt; inactive means no such curve, though single readings can be large or run the other way. A potency beside an inconclusive call is a rough fit, not a confirmed value.

Biological target: Lysine-specific demethylase 4E (Homo sapiens) (UniProt B2RXH2)
Chain of UniProt B2RXH2 (B2RXH2 whole entry, looked up, the tested form may be a part): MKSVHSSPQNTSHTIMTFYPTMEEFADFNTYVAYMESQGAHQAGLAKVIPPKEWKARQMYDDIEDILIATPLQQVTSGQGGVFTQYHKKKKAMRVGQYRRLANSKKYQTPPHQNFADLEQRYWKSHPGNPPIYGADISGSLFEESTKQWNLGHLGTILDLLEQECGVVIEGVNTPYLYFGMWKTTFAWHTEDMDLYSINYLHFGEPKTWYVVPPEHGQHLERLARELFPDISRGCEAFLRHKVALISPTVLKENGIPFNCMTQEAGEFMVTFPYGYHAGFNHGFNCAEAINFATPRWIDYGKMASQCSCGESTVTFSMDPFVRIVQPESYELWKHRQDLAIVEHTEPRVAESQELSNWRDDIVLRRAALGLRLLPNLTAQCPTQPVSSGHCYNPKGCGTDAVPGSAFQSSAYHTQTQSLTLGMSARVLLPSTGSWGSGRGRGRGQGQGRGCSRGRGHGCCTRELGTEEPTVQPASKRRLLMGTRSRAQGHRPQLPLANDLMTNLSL
Test: qHTS Assay for Inhibitors of Human Jumonji Domain Containing 2E (JMJD2E)
Settings: JMJD2E catalytic domain, FDH-coupled NADH fluorescence (FDH is formaldehyde dehydrogenase); series mostly up to 57.1 µM; activity change, negative = inhibition: at the top concentration
Further: nearly all actives have a fitted effect of over 50% in size.
Potency means the concentration at half of the fitted maximal effect; tags describe the fitted curve by direction and shape.
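Wherever activity change, negative = inhibition is given: 0% = wells with enzyme and -100% = buffer wells without enzyme.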

SMILES | Potency | activity change, negative = inhibition
Cc1ccc(CNC(=O)C2c3ccccc3C(=O)N3CCc4ccccc4C23)o1 (stereo not drawn) | inconclusive: 39.8 µM [inhibitor, single point] | 
CN(C)Cc1c(O)c(Cl)cc2c3c(c(=O)oc12)CCCC3 | inconclusive: 14.1 µM [inhibitor, partial curve] | 
N#Cc1c(-c2ccc(F)cc2)cc(-c2ccccc2)nc1SCC(=O)NCC(=O)O | inconclusive: 28.2 µM [inhibitor, partial curve] | 
Cc1ccccc1Nc1cc2ccccc2c(=O)[nH]1 | inconclusive: 11.2 µM [inhibitor, partial curve] | 
COc1ccc(C(=O)NCC(=O)Nc2cccc(S(=O)(=O)NCc3ccco3)c2)cc1OC |  | inactive: -7.18%
O=S(=O)(c1ccc(N2CCN(S(=O)(=O)c3ccc4c(c3)OCCO4)CC2)nc1)N1CCCC1 | inconclusive: 39.8 µM [inhibitor, single point] | 
COc1cc2cc(C(c3nnnn3C(C)(C)C)N3CCc4ccccc4C3)c(=O)[nH]c2cc1OC (stereo not drawn) | inconclusive: 14.1 µM [inhibitor, partial curve] | 
COc1ccccc1/C=N/n1cnnc1 | inconclusive: 35.5 µM [inhibitor, single point] | 
N#Cc1c(C(F)(F)F)cc(C2CC2)nc1N1CCCC1 | inconclusive: 31.6 µM [inhibitor, partial curve] | 
Cn1c(=O)[nH]c(=O)c2c1nc1n2CC(COc2ccc3ccccc3c2)O1 (stereo not drawn) | inconclusive: 39.8 µM [inhibitor, single point] | 
CCn1c2ccc(C)cc2c2nc3cc(C(=O)O)ccc3nc21 | inconclusive: 31.6 µM [inhibitor, partial curve] | 
Oc1ccc(-c2cn3cc(C(F)(F)F)ccc3n2)cc1 | inconclusive: 28.2 µM [inhibitor, partial curve] | 
COc1ccc(-c2cn[nH]c2-c2ccc(OCc3ccc([N+](=O)[O-])cc3)cc2O)cc1OC |  | inactive: -11.7%
FC(F)(F)c1ccc(Oc2ccc3c(C(F)(F)F)cc(C(F)(F)F)nc3n2)cc1 | inconclusive: 31.6 µM [inhibitor, single point] | 
CC(CN1CCOCC1)OC(=O)c1ccc(Br)cc1 (stereo not drawn) | inconclusive: 20 µM [inhibitor, single point] | 
CN(C)c1ccnc(Nc2ccccc2)c1C#N |  | inactive: -11%
Cc1nn(C)cc1-c1csc(N)n1 |  | inactive: -5.09%
Cc1cc(C)c2nncn2n1 | inconclusive: 25.1 µM [inhibitor, single point] | 
O=C(NCC1OCCc2ccccc21)c1ccco1 (stereo not drawn) |  | inactive: -8.37%
Cc1ccccc1S(=O)(=O)c1cc2ccccc2nc1N | inconclusive: 31.6 µM [inhibitor, partial curve] | 
CCCCN(CCCC)CC(O)COc1ccc(Br)cc1 (stereo not drawn) | inconclusive: 25.1 µM [inhibitor, single point] | 
Cc1ccc(SCC(=O)Nc2cccc(NC(=O)c3ccco3)c2)cc1 |  | inactive: 8.88%
[O-]/C(=C(\C(=S)Nc1cccc2ccccc12)[n+]1ccccc1)c1cccs1 | inconclusive: 28.2 µM [inhibitor, partial curve] | 
CC(C)(C)C(=O)NC(=S)Nc1sc2c(c1C#N)CCCCC2 |  | inactive: -0.58%
CCOC(=O)C1CCN(C(=O)CSCc2nc(-c3ccc(OCC)cc3)oc2C)CC1 | inconclusive: 35.5 µM [inhibitor, single point] | 

SMILES | Potency | activity change, negative = inhibition
COc1cc2c(cc1NC(=O)COC(=O)[C@@H](NS(=O)(=O)c1cccc(Cl)c1)C(C)C)oc1ccccc12 | inconclusive: 10 µM [inhibitor, partial curve] | 
CN(C)c1ccc(-c2nc(NC3CCNCC3)c3ccccc3n2)cc1 | inconclusive: 25.1 µM [inhibitor, single point] | 
CCOC(=O)c1sc2nc(NC(=O)C3CC3)sc2c1C | inconclusive: 35.5 µM [inhibitor, single point] | 
COc1ccc(-c2nsc3c(N4CCCC4)ncnc23)cc1 | inconclusive: 7.08 µM [inhibitor, single point] | 
COc1ccc(-c2cc(C(=O)Nc3sc4c(c3C#N)CCCC4)c3ccccc3n2)cc1 | inconclusive: 31.6 µM [inhibitor, partial curve] | 
C=CCOc1cccc(CNc2cccc(C(=O)O)c2)c1 | inconclusive: 31.6 µM [inhibitor, partial curve] | 
O=S(=O)(Nc1cccc2cccnc12)c1ccc(S(=O)(=O)N2CCCC2)cc1 |  | inactive: 1.15%
Cc1ccc(NC(=S)NNC(=O)c2nnn(-c3ccccc3)c2C)cc1 | inconclusive: 28.2 µM [inhibitor, single point] | 
O=C(c1ccccc1)N1CCN(c2ncnc3c2cnn3-c2ccccc2)CC1 |  | inactive: -7.17%
CCOC(=O)c1c(NC(=O)COC)sc(C(C)=O)c1C |  | inactive: 9.29%
COCCCNC(=O)c1cc(C)nn1-c1ccccc1 |  | inactive: -2.41%
Cc1cc(NCCCN2CCOCC2)n2ncc(-c3ccc(Cl)cc3)c2n1 | inconclusive: 10 µM [inhibitor, partial curve] | 
COc1ccc2c(c1)C(=O)[C@@H](OC(=O)N[C@H](C)C1CCCCC1)[C@H](c1ccc(OC)c(Br)c1)O2 |  | inactive: -18.3%
COc1ccc(-c2nnc3n(CCc4ccccc4)c(=O)c4ccccc4n23)cc1OC |  | inactive: -0.18%
O=C(CCSc1ccc(Cl)cc1)NN=C1CCCCCC1 |  | inactive: 3.73%
CCOC(=O)c1cc(-c2ccc(OC)cc2)nc2c1c(C)nn2CCC#N | inconclusive: 31.6 µM [inhibitor, partial curve] | 
OC1CN=C2CCCc3c2n(c2ccc(Cl)cc32)C1 (stereo not drawn) | inconclusive: 28.2 µM [inhibitor, single point] | 
CN1CCCCc2c1nc1c(c2N)CCCC1 | inconclusive: 25.1 µM [inhibitor, single point] | 
COC(=O)c1cc(C(=O)OC)cc(-n2c(C)cc(C(=O)COC(=O)CNS(=O)(=O)c3ccc(C)cc3)c2C)c1 | inconclusive: 39.8 µM [inhibitor, single point] | 
COc1ccc(CCNC(=O)CNCC2CCCO2)cc1OC (stereo not drawn) | inconclusive: 25.1 µM [inhibitor, single point] | 
Cc1ccc(-c2cc(C#N)c(=O)n(Cc3c(Cl)cccc3Cl)c2)cc1 | inconclusive: 14.1 µM [inhibitor, single point] | 
N#Cc1ccc(-c2ccc(F)cc2)nc1SCC(=O)Nc1sc2c(c1C#N)CCC2 |  | inactive: 11.7%
Cn1c(-c2ccc(=O)[nH]c2)nc2ccccc21 | inconclusive: 25.1 µM [inhibitor, partial curve] | 
CC(=O)Nc1cccc(OC(=O)c2ccoc2C)c1 | inconclusive: 17.8 µM [inhibitor, single point] | 
Cn1c(=S)c2[nH]c(SCCN3CCCC3)nc2n(C)c1=O | inconclusive: 3.55 µM [inhibitor, full curve] | 

SMILES | Potency | activity change, negative = inhibition
O=C(Nc1ccccc1N1CCCCC1)c1ncoc1-c1ccc(F)cc1 | inconclusive: 39.8 µM [inhibitor, single point] | 
Cc1ccc(S(=O)(=O)NCCSc2ncccn2)cc1 |  | inactive: 6.56%
Cc1ccc(C(=O)CSc2nc3ccc(C(=O)NCCN4CCCCC4)cc3c(=O)[nH]2)cc1 | inconclusive: 39.8 µM [inhibitor, single point] | 
Cc1ccc2cc(C#N)c(N3CCCN(C(=O)C4CCCO4)CC3)nc2c1C (stereo not drawn) | inconclusive: 8.91 µM [inhibitor, partial curve] | 
O=S(=O)(c1ccc(F)cc1)c1nc(-c2ccco2)oc1Nc1ccccc1 | inconclusive: 39.8 µM [inhibitor, single point] | 
CCNc1nc(NC(C)C)nc(NS(=O)(=O)c2ccc(Cl)cc2)n1 |  | inactive: 7.32%
Cc1nc2c(C(=O)O)cnn2c(C)c1Cc1ccccc1F | inconclusive: 28.2 µM [inhibitor, partial curve] | 
O=c1c2ccccc2cnn1Cc1n[nH]c(=S)n1-c1ccc(Cl)cc1 |  | inactive: -0.884%
COc1cc(-c2nnc(-c3ccc(S(=O)(=O)c4ccccc4)cc3)o2)cc(OC)c1OC | inconclusive: 28.2 µM [inhibitor, single point] | 
CCc1c(C)nc(SCC(=O)N2CCCCC2CC)[nH]c1=O (stereo not drawn) |  | inactive: -4.07%
O=C(O)c1ccc2nc(-c3ccccc3)c(-c3ccccc3)nc2c1 | inconclusive: 31.6 µM [inhibitor, partial curve] | 
Cc1ccc(S(=O)(=O)Nc2ccc(N3CCOCC3)cc2)cc1 |  | inactive: -0.126%
COc1cc2[nH]c3c(=O)n(CCN4CCOCC4)cnc3c2cc1OC | inconclusive: 25.1 µM [inhibitor, partial curve] | 
NC(=O)C1CCN(c2oc(-c3ccccc3F)nc2S(=O)(=O)c2ccc(Cl)cc2)CC1 |  | inactive: -1.77%
Cc1noc(C)c1S(=O)(=O)N1CCN(C(c2ccccc2)c2ccc(Cl)cc2)CC1 (stereo not drawn) |  | inactive: 5.39%
COc1ccc(-c2nnn(CC(=O)NCc3cccs3)n2)cc1OC | inconclusive: 31.6 µM [inhibitor, single point] | 
Cc1ccccc1CSCC(=O)NC1CCCC1 |  | inactive: -4.69%
Fc1ccc(N/N=C2/CCSc3sccc32)c(F)c1 | inconclusive: 20 µM [inhibitor, single point] | 
CC1=NNC(=O)C1CC(=O)N/N=C/C(Br)=C/c1ccccc1 (stereo not drawn) |  | inactive: 3.12%
CC(C)NC(=O)COc1ccc2c(c1)C(=O)CC(C)(C)O2 | inconclusive: 28.2 µM [inhibitor, partial curve] | 
Cn1c(=O)n(CCc2ccccc2)c(=O)c2c1nc1n2CCCN1Cc1ccccc1 |  | inactive: -2.69%
CCOC(=O)C1=C(C)N=c2s/c(=C\c3ccc(OCC(=O)O)cc3)c(=O)n2C1c1ccc(OC(C)C)cc1 (stereo not drawn) |  | inactive: 6.21%
O=C(CSc1nc(-c2ccco2)cc(C(F)(F)F)n1)NCCc1ccccc1 | inconclusive: 28.2 µM [inhibitor, single point] | 
